The values below come from US20150183847A1.

For this assay, the target named is interleukin-1 receptor (human (CHO-derived cells) or murine (EL4 cells); not stated which gave the tables) (UniProt P14778). The experiment in a line: competition with 35S-IL-1Ra on IL-1 receptor cells.

B1: IN-3 (protein)
chain: [in this place about 40 residues]GSGSSSAAAPQT[in this place about 20 residues]RPSGRKSSKMQAFRIWDVNQKTFYLRNNQLVAGYLQGPNVNLEEKIDVVPIEPHALFLGIHGGKMSLSSVKSGDETRLQLEAVNITDLSENRKQDKRFAFIRSDSGPTTSFESAASPGWFLSTAMEADQPVSLTNMPDEGVMVTKFYFQEDE
As for B1, the % of wild type activity (IC50 ratio) amounted to 35%.

B2: IN-12 (protein)
chain: [in this place about 40 residues]GSGSSSAAAPQT[in this place about 20 residues]GGGGSGGGGSGGGGSRPSGRKSSKMQAFRIWDVNQKTFYLRNNQLVAGYLQGPNVNLEEKIDVVPIEPHALFLGIHGGKMSLSSVKSGDETRLQLEAVNITDLSENRKQDKRFAFIRSDSGPTTSFESAASPGWFLSTAMEADQPVSLTNMPDEGVMVTKFYFQEDE
For the molecule B2, the % of wild type activity (IC50 ratio) was 48%.

B3: IN-64 (protein)
chain: RPSGRKSSKMQAFRIWDVNQKTFYLRNNQLVAGYLQGPNVNLEEKIDVVPIEPHALFLGIHGGKMSLSSVKSGDETRLQLEAVNITDLSENRKQDKRFAFIRSDSGPTTSFESAASPGWFLSTAMEADQPVSLTNMPDEGVMVTKFYFQEDEGGGGSGGGGS[in this place about 40 residues]GSGSSSAAAPQT[in this place about 20 residues]
B3: the % of wild type activity (IC50 ratio) came out at 42%.

B4: IN-6 (protein)
chain: [in this place about 40 residues]GSGSSSAAAPQT[in this place about 20 residues]GGGGSRPSGRKSSKMQAFRIWDVNQKTFYLRNNQLVAGYLQGPNVNLEEKIDVVPIEPHALFLGIHGGKMSLSSVKSGDETRLQLEAVNITDLSENRKQDKRFAFIRSDSGPTTSFESAASPGWFLSTAMEADQPVSLTNMPDEGVMVTKFYFQEDE
With B4, the % of wild type activity (IC50 ratio) was found to be 37%.

B5: IN-18 (protein)
chain: FVNQHLCGSHLVEALYLVCGERGFFGSGSSSAAAPQT[in this place about 20 residues]GGGGSRPSGRKSSKMQAFRIWDVNQKTFYLRNNQLVAGYLQGPNVNLEEKIDVVPIEPHALFLGIHGGKMSLSSVKSGDETRLQLEAVNITDLSENRKQDKRFAFIRSDSGPTTSFESAASPGWFLSTAMEADQPVSLTNMPDEGVMVTKFYFQEDE
On to B5, for which the % of wild type activity (IC50 ratio) was found to be 40%.

B6: IN-9 (protein)
chain: [in this place about 40 residues]GSGSSSAAAPQT[in this place about 20 residues]GGGGSGGGGSRPSGRKSSKMQAFRIWDVNQKTFYLRNNQLVAGYLQGPNVNLEEKIDVVPIEPHALFLGIHGGKMSLSSVKSGDETRLQLEAVNITDLSENRKQDKRFAFIRSDSGPTTSFESAASPGWFLSTAMEADQPVSLTNMPDEGVMVTKFYFQEDE
Turning to B6, the % of wild type activity (IC50 ratio) is 47%.

B7: IN-24 (protein)
chain: FVNQHLCGSHLVEALYLVCGERGFFGSGSSSAAAPQT[in this place about 20 residues]GGGGSGGGGSGGGGSRPSGRKSSKMQAFRIWDVNQKTFYLRNNQLVAGYLQGPNVNLEEKIDVVPIEPHALFLGIHGGKMSLSSVKSGDETRLQLEAVNITDLSENRKQDKRFAFIRSDSGPTTSFESAASPGWFLSTAMEADQPVSLTNMPDEGVMVTKFYFQEDE
For B7, the % of wild type activity (IC50 ratio) is 45%.

B8: IN-21 (protein)
chain: FVNQHLCGSHLVEALYLVCGERGFFGSGSSSAAAPQT[in this place about 20 residues]GGGGSGGGGSRPSGRKSSKMQAFRIWDVNQKTFYLRNNQLVAGYLQGPNVNLEEKIDVVPIEPHALFLGIHGGKMSLSSVKSGDETRLQLEAVNITDLSENRKQDKRFAFIRSDSGPTTSFESAASPGWFLSTAMEADQPVSLTNMPDEGVMVTKFYFQEDE
As for B8, the % of wild type activity (IC50 ratio) was found to be 43%.

B9: IN-15 (protein)
chain: FVNQHLCGSHLVEALYLVCGERGFFGSGSSSAAAPQT[in this place about 20 residues]RPSGRKSSKMQAFRIWDVNQKTFYLRNNQLVAGYLQGPNVNLEEKIDVVPIEPHALFLGIHGGKMSLSSVKSGDETRLQLEAVNITDLSENRKQDKRFAFIRSDSGPTTSFESAASPGWFLSTAMEADQPVSLTNMPDEGVMVTKFYFQEDE
For the molecule B9, the % of wild type activity (IC50 ratio) was found to be 32%.
